According to PubChem BioAssay AID1671193 (National Center for Advancing Translational Sciences (NCATS), 2021):
Among all 150,000 compounds or so, about 180 (0.12%) were called active. Inconclusive means that the source gave no clear call. Such entries were picked first, then a sample of the others. Calls follow the shape of the dose curve; as a rule, active = well fitted cell-killing curve with a large enough effect; inconclusive = small, poorly fitted or top-dose-only effect, or effect the other way; inactive = flat fitted curve, though single readings scatter. Potencies of inconclusive entries are doubtful fits and often do not repeat.

Assay: GF-AFC viability counterscreen for inhibitors of alpha-synuclein gene (SNCA) expression; also: nearly all actives have a fitted effect of over 30% in size;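 as to activity change, negative = cytotoxicity: 0% = DMSO-treated cells and -100% = medium-only wells without cells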
Conditions: HEK-293-SNCA-luc viability, GF-AFC fluorescence, 24 h; activity change, negative = cytotoxicity: at 57.1 µM (top of the series) unless noted
In short: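 HEK-293-SNCA-luc cells (1500/well) plated 24 h, then exposed 24 h to a dilution series; GF-AFC added 30 min at 37C, fluorescence 405/540 nm; normalised to medium-only and DMSO wells, Hill fit.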
Potency is read from the fitted curve at half-maximal effect; tags tell the direction and shape of the fitted curve.

Row | Structure (SMILES) | Potency | activity change, negative = cytotoxicity
1 | COc1ccccc1-c1nc2c(c(SCC(=O)Nc3ccccc3F)n1)Cc1c(CO)cnc(C)c1O2 | inconclusive: 14.1 µM [cytotoxic, partial curve, poor fit] | –
2 | C=C(C)C1CC(O)C(C)C12CC(O)C1(C)OC1C2O (stereo unspecified) | inconclusive: 1.06 µM [rising, partial curve, poor fit] | –
3 | O=C(OCc1ccccc1)N1CCOCC12CCN(Cc1ccc(F)cc1)CC2 | inconclusive: 56.2 µM [cytotoxic, partial curve, poor fit] | –
4 | COc1ccc(-c2cccc(CCOc3cnc4c(ccn4CC(=O)O)c3)c2)c(C)c1 | inactive | –
5 | COc1ccc(NC(=O)N2CCC[C@H]2c2nc(-c3ccc(F)cc3)n[nH]2)c(OC)c1 | inconclusive: 31.6 µM [cytotoxic, single point] | –
6 | COc1cc2nc(N3CCC(N4CCCCC4)CC3)nc(NC3CCCCCC3)c2cc1OC | active: 23.8 µM | –
7 | COc1ccc(OCC(=O)N2CCCC3(C2)Nc2cccnc2NC3=NC2CCCC2)cc1 (stereo unspecified) | inactive | –
8 | COc1ccc(NC(=O)CC2C(=O)N(c3ccccc3)C(=O)N2CCC2=CCCCC2)cc1 (stereo unspecified) | inconclusive: 28.2 µM [cytotoxic, partial curve] | –
9 | COc1ccc(Br)c(C(=O)Nc2cc3c(cc2N2CCCC2)n(C)c(=O)c(=O)n3C)c1 | inconclusive: 6.31 µM [cytotoxic, full curve] | –
10 | Cc1ccc(C)c(OCC(=O)c2ccc3c(c2)N(CC(=O)NCC2CC2)C(=O)CO3)c1 | inconclusive: 12.6 µM [cytotoxic, partial curve, poor fit] | –
11 | CC(C)Cn1c(=O)c(C(=O)NCC(F)(F)F)nc2cccnc21 | inactive | –
12 | Cn1ncc2c(C(=O)N3CCN(c4ncccn4)CC3)cc(-c3ccc(Cl)nc3)nc21 | inconclusive: 22.4 µM [cytotoxic, partial curve, poor fit] | –
13 | COC(=O)[C@@H]1Cc2c([nH]c3ccccc23)[C@H]2C[C@@H](NCCN(C)C)C[C@@H](c3cccc(Cl)c3)N21 | inconclusive: 39.8 µM [cytotoxic, single point] | –
14 | O=C1CCC[C@H]2C3CC(CN(c4nc5ccccc5s4)C3)CN12 (stereo partly specified) | inconclusive: 28.2 µM [cytotoxic, partial curve, poor fit] | –
15 | Cc1cc(CC(=O)N2CC[C@@H](NC(=O)c3ccccn3)[C@H](O)C2)on1 | inactive | –
16 | Cn1c(CN2CC[C@H](c3nc4ccccc4[nH]3)C2)nc2ccccc21 | inactive | –
17 | Cc1noc(C)c1CC(=O)N1[C@@H]2CC[C@H]1CC(NC(=O)c1ccc(F)cc1)C2 (stereo partly specified) | inactive | –
18 | CCN1c2cc(C(=O)Nc3cccc(OC)c3)ccc2C(=O)N2CCCC21 (stereo unspecified) | – | inactive: -11.3% [at 12.5 µM]
19 | CCOC(=O)C1=CN(CC(=O)Nc2ccccc2F)S(=O)(=O)N=C1C | inconclusive: 39.8 µM [cytotoxic, single point] | –
20 | Cc1cccc(C2C=C(c3ccc(C)c(C)c3)Nc3nnnn32)c1 (stereo unspecified) | inconclusive: 28.2 µM [rising, single point] | –
21 | O=C(Nc1ccccn1)[C@@H]1C[C@@H](c2ccc(F)cc2)N(Cc2ccccc2)C1 | inconclusive: 31.6 µM [cytotoxic, single point] | –

Row | Structure (SMILES) | Potency | activity change, negative = cytotoxicity
22 | O=C(Nc1cccc(F)c1)N1CCCC1c1nc(C2CCOCC2)no1 (stereo unspecified) | inconclusive: 1.26 µM [cytotoxic, full curve, poor fit] | –
23 | COc1ccc(-c2ccnc(N[C@H]3CO[C@H]4[C@@H]3OC[C@H]4OC(=O)Nc3ccc(C(C)(C)C)cc3)n2)cc1 | inactive | –
24 | Cc1nc(-c2ccc(F)cc2)n(CC(=O)Nc2ccc(F)c(Cl)c2)c(=O)c1CCO | inconclusive: 39.8 µM [cytotoxic, single point] | –
25 | COc1cccc(CN2CCCC(NC(=O)NCc3cccs3)C2)c1 (stereo unspecified) | inconclusive: 39.8 µM [cytotoxic, single point] | –
26 | O=C(NCc1cccnc1)c1cc(CN2CCC(Cc3ccccc3)CC2)on1 | inactive | –
27 | Cc1ccc(C(=O)N2CCc3cc(CNS(=O)(=O)c4cccs4)ccc32)cc1 | inconclusive: 35.5 µM [cytotoxic, single point] | –
28 | O=C(Nc1nc2c(s1)CCCCCC2)Nc1ccc(F)cc1F | inconclusive: 7.08 µM [cytotoxic, single point] | –
29 | O=c1c(-c2ccc(Cl)cc2)nc2cnc(N3CCNCC3)nc2n1Cc1cccs1 | inconclusive: 8.91 µM [rising, partial curve, poor fit] | –
30 | COc1cccc(-c2noc(C3CC(=O)N(c4ccc(F)cc4)C3)n2)c1OC (stereo unspecified) | inconclusive: 35.5 µM [cytotoxic, partial curve, poor fit] | –
31 | COC(=O)c1ccccc1NC(=O)c1c(OC)cc(=O)n2c1CCCC2 | inactive | –
32 | O=C(Nc1ccc(S(=O)(=O)N2CCCCC2c2cccnc2)cc1)c1ccc(Br)cc1 (stereo unspecified) | inconclusive: 31.6 µM [cytotoxic, partial curve, poor fit] | –
33 | CC(C)(O)Cn1c(NC(=O)c2ccc(-c3cn[nH]c3)s2)nc2cc(CN3CCOCC3)ccc21 | inconclusive: 1.36 µM [cytotoxic, full curve] | –
34 | COc1cccc([S+](=O)([O-])N2CCC(c3nn(-c4ccccn4)c(=O)[nH]3)CC2)c1 | inconclusive: 5.62 µM [cytotoxic, single point] | –
35 | Cc1ccc(-c2cccc(CN3CCCC(NC(=O)Nc4ccccc4F)C3)c2)cc1Cl (stereo unspecified) | inconclusive: 25.1 µM [cytotoxic, single point] | –
36 | CCOC(=O)C1(Cc2ccc(F)cc2)CCCN(C(=O)c2cc3nc(C)cc(C)n3n2)C1 (stereo unspecified) | inactive | –
37 | O=C1NC2(CCN(C(=O)c3cccnc3)C2)N=C1c1cccnc1 (stereo unspecified) | inconclusive: 3.55 µM [rising, full curve, poor fit] | –
38 | COc1cccc(-n2cc(CN(C)Cc3cn(-c4ccccc4)nn3)cn2)c1 | inactive | –
39 | O=C(c1ccc(-c2cccc(O)c2)nc1)N1CCC(CCc2ccccc2)CC1 | inconclusive: 31.6 µM [cytotoxic, single point] | –
40 | COCCn1c(=O)c(-c2cc(F)cc(F)c2)nc2cnc(N3CCOCC3)nc21 | inconclusive: 39.8 µM [rising, single point] | –
41 | CC#CCn1cc2c3c(cccc31)[C@H](CC(C)C)N[C@H](C(=O)NC1CCCC1)C2 | inactive | –
42 | CC1CCC2(CC1)NC(=O)N(CC(=O)NC1CCCC1)C2=O (stereo unspecified) | inactive | –

Row | Structure (SMILES) | Potency | activity change, negative = cytotoxicity
43 | O=c1cc(-c2ccncc2)oc2c(-c3ccc(CO)cc3)nccc12 | inactive | –
44 | CCCOC(=O)c1c(NC(=O)C(C)Sc2nc(-c3ccccc3)cc(C(F)(F)F)n2)sc(C(=O)N(C)C)c1C (stereo unspecified) | inconclusive: 15.8 µM [cytotoxic, partial curve, poor fit] | –
45 | CN1CCc2c(sc(NC(=O)CSc3ccccc3)c2-c2nc3ccccc3s2)C1 | inconclusive: 25.1 µM [rising, partial curve, poor fit] | –
46 | CCOc1ccccc1CNCc1cccn1-c1nnc(N2CCN(c3ccccc3)CC2)s1 | inconclusive: 35.5 µM [cytotoxic, single point] | –
47 | Cc1ncc2c(c1CNC(=O)c1ccccc1F)CCN(C(=O)Cc1ccc(F)c(F)c1)C2 | inconclusive: 3.98 µM [cytotoxic, single point] | –
48 | O=C(Nc1cccc(C(F)(F)F)c1)c1cc(CN2CCOCC2)on1 | inactive | –
49 | Cc1ccn(CC(=O)N[C@@H]2CN(c3ncccn3)C[C@H]2CO)n1 | inconclusive: 7.08 µM [cytotoxic, single point] | –
50 | O=C(Cn1ccn2nc(-c3ccccc3)c(CO)c2c1=O)Nc1ccc2c(c1)OCO2 | inactive | –
51 | COc1ccc(Nc2ccnc(N3CCC(NC(=O)c4ccc(OC)cc4)CC3)n2)cc1 | inconclusive: 12.6 µM [cytotoxic, partial curve] | –
52 | COc1ccc(-c2nc(SCC(=O)Nc3ccc4c(c3)OCCO4)c(-c3ccc(C)cc3)[nH]2)cc1OC | inconclusive: 22.4 µM [cytotoxic, partial curve, poor fit] | –
53 | CCc1ccccc1OCC(=O)c1ccc2c(c1)N(CC(=O)Nc1ccc(F)cc1)C(=O)CO2 | inconclusive: 25.1 µM [cytotoxic, partial curve, poor fit] | –
54 | N#Cc1cccc(CN[C@H]2[C@H](O)[C@H](O)C[C@@H]2c2ccc(C(F)(F)F)nc2)c1 | inconclusive: 28.2 µM [cytotoxic, partial curve, poor fit] | –
55 | COc1ccccc1CNC(=O)CCC1N=C2c3ccccc3N=C(SCc3ccc(C)cc3C)N2C1=O (stereo unspecified) | inconclusive: 12.6 µM [cytotoxic, partial curve] | –
56 | CN(c1cc(=O)c2ccnc(NCc3ccc4c(c3)OCO4)c2o1)C1CCOCC1 | inactive | –
57 | COc1ccc(CCN2C(=O)c3[nH]nc(-c4ccccc4O)c3C2c2ccc(OC)cc2)cc1 (stereo unspecified) | inconclusive: 39.8 µM [cytotoxic, single point] | –
58 | COc1ccc(CC(=O)Nc2ccc3n(c2=O)C[C@H]2C[C@@H]3CN(C(=O)c3ccc4ccccc4c3)C2)cc1 | inconclusive: 25.1 µM [cytotoxic, partial curve, poor fit] | –
59 | C=CS(=O)(=O)NC1CCN(C(=O)CNc2cc(I)c(Cl)cc2OC)CC1 | inconclusive: 26.7 µM [cytotoxic, single point] | –
60 | COc1ccc(NC(=O)CSc2nc(-c3ccc(F)cc3)[nH]c2-c2ccc(C)cc2)cc1OC | inconclusive: 28.2 µM [cytotoxic, partial curve, poor fit] | –
61 | CCN(CC)CCCCNc1ncc2cc(-c3cc(OC)cc(OC)c3)c(NC(=O)NC(C)(C)C)nc2n1 | inconclusive: 5.41 µM [cytotoxic, partial curve] | –
